Measured values: the supplement of paper PMC8728848
The other results are listed elsewhere or left out.

Assays:
Test in all cases: glycan array binding signal (z-score within array); higher = stronger binding
Settings in all cases: glycan notation: IUPAC condensed, linker removed
[1] = target: Man(a1-3)[Man(a1-6)]Man(a1-6)[Man(a1-2)Man(a1-3)]Man(b1-4)GlcNAc(b1-4)GlcNAc
Method in brief: (§1)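 Columns mapping to the same glycan were averaged after glycan names were converted to IUPAC-condensed notation. The data come from 3228 arrays in the Consortium for Functional Glycomics database, limited to those with an available protein sequence. Binding is reported as a within-array Z-score averaged across arrays of one protein sequence and across linkers.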

[2] = target: Man(a1-3)[Man(a1-6)]Man(a1-6)[Man(a1-3)]Man(b1-4)GlcNAc(b1-4)GlcNAc
Method in brief: as §1

[3] = target: Man(a1-3)[Man(a1-6)]Man(b1-4)GlcNAc(b1-4)GlcNAc
Method in brief: as §1

Man(b1-4)GlcNAc = target: Man(b1-4)GlcNAc
Method in brief: as §1

Neu5Ac(a2-3)Gal = target: Neu5Ac(a2-3)Gal
Method in brief: as §1

[4] = target: Neu5Ac(a2-3)Gal(b1-3)GalNAc
Method in brief: as §1

[5] = target: Neu5Ac(a2-3)Gal(b1-3)GalNAc(b1-3)Gal(a1-4)Gal(b1-4)Glc
Method in brief: as §1

[6] = target: Neu5Ac(a2-3)Gal(b1-3)GalNAc(b1-3)Gal(b1-4)GlcNAc
Method in brief: as §1

[7] = target: Neu5Ac(a2-3)Gal(b1-3)GalNAc(b1-4)[Neu5Ac(a2-3)]Gal(b1-4)Glc
Method in brief: as §1

[8] = target: Neu5Ac(a2-3)Gal(b1-3)GalNAc6S
Method in brief: as §1

[9] = target: Neu5Ac(a2-3)Gal(b1-3)GlcNAc
Method in brief: as §1

[10] = target: Neu5Ac(a2-3)Gal(b1-3)GlcNAc6S
Method in brief: as §1

[11] = target: Neu5Ac(a2-3)Gal(b1-3)[Fuc(a1-4)]GlcNAc
Method in brief: as §1

[12] = target: Neu5Ac(a2-3)Gal(b1-3)[Fuc(a1-4)]GlcNAc(b1-3)Gal(b1-4)[Fuc(a1-3)]GlcNAc
Method in brief: as §1

[13] = target: Neu5Ac(a2-3)Gal(b1-3)[Neu5Ac(a2-3)Gal(b1-4)]GlcNAc
Method in brief: as §1

[14] = target: Neu5Ac(a2-3)Gal(b1-3)[Neu5Ac(a2-6)]GalNAc
Method in brief: as §1

Neu5Ac(a2-3)Gal(b1-4)Glc = target: Neu5Ac(a2-3)Gal(b1-4)Glc
Method in brief: as §1

[15] = target: Neu5Ac(a2-3)Gal(b1-4)GlcNAc
Method in brief: as §1

[16] = target: Neu5Ac(a2-3)Gal(b1-4)GlcNAc(b1-2)Man(a1-3)[Neu5Ac(a2-3)Gal(b1-4)GlcNAc(b1-2)Man(a1-6)]Man(b1-4)GlcNAc(b1-4)GlcNAc
Method in brief: as §1

[17] = target: Neu5Ac(a2-3)Gal(b1-4)GlcNAc(b1-3)Gal(b1-4)GlcNAc
Method in brief: as §1

[18] = target: Neu5Ac(a2-3)Gal(b1-4)GlcNAc(b1-3)Gal(b1-4)GlcNAc(b1-3)Gal(b1-4)GlcNAc
Method in brief: as §1

[19] = target: Neu5Ac(a2-3)Gal(b1-4)GlcNAc(b1-3)Gal(b1-4)[Fuc(a1-3)]GlcNAc
Method in brief: as §1

[20] = target: Neu5Ac(a2-3)Gal(b1-4)GlcNAc6S
Method in brief: as §1

[21] = target: Neu5Ac(a2-3)Gal(b1-4)[Fuc(a1-3)]GlcNAc
Method in brief: as §1

[22] = target: Neu5Ac(a2-3)Gal(b1-4)[Fuc(a1-3)]GlcNAc(b1-3)Gal
Method in brief: as §1

[23] = target: Neu5Ac(a2-3)Gal(b1-4)[Fuc(a1-3)]GlcNAc(b1-3)Gal(b1-4)GlcNAc
Method in brief: as §1

[24] = target: Neu5Ac(a2-3)Gal(b1-4)[Fuc(a1-3)]GlcNAc(b1-3)Gal(b1-4)[Fuc(a1-3)]GlcNAc(b1-3)Gal(b1-4)[Fuc(a1-3)]GlcNAc
Method in brief: as §1

[25] = target: Neu5Ac(a2-3)Gal(b1-4)[Fuc(a1-3)]GlcNAc6S
Method in brief: as §1

[26] = target: Neu5Ac(a2-3)Gal6S(b1-4)GlcNAc
Method in brief: as §1

[27] = target: Neu5Ac(a2-3)Gal6S(b1-4)[Fuc(a1-3)]GlcNAc
Method in brief: as §1

Neu5Ac(a2-3)GalNAc = target: Neu5Ac(a2-3)GalNAc
Method in brief: as §1

[28] = target: Neu5Ac(a2-3)GalNAc(b1-4)GlcNAc
Method in brief: as §1

[29] = target: Neu5Ac(a2-3)[GalNAc(b1-4)]Gal(b1-4)Glc
Method in brief: as §1

[30] = target: Neu5Ac(a2-3)[GalNAc(b1-4)]Gal(b1-4)GlcNAc
Method in brief: as §1

[31] = target: Neu5Ac(a2-3)[Neu5Ac(a2-6)]GalNAc
Method in brief: as §1

Neu5Ac(a2-6)Gal = target: Neu5Ac(a2-6)Gal
Method in brief: as §1

Neu5Ac(a2-6)Gal(b1-4)Glc = target: Neu5Ac(a2-6)Gal(b1-4)Glc
Method in brief: as §1

[32] = target: Neu5Ac(a2-6)Gal(b1-4)GlcNAc
Method in brief: as §1

[33] = target: Neu5Ac(a2-6)Gal(b1-4)GlcNAc(b1-3)Gal(b1-4)GlcNAc
Method in brief: as §1

[34] = target: Neu5Ac(a2-6)Gal(b1-4)GlcNAc(b1-3)Gal(b1-4)[Fuc(a1-3)]GlcNAc(b1-3)Gal(b1-4)[Fuc(a1-3)]GlcNAc
Method in brief: as §1

[35] = target: Neu5Ac(a2-6)Gal(b1-4)GlcNAc6S
Method in brief: as §1

Neu5Ac(a2-6)GalNAc = target: Neu5Ac(a2-6)GalNAc
Method in brief: as §1

[36] = target: Neu5Ac(a2-6)GalNAc(b1-4)GlcNAc
Method in brief: as §1

Neu5Ac(a2-8)Neu5Ac = target: Neu5Ac(a2-8)Neu5Ac
Method in brief: as §1

[37] = target: Neu5Ac(a2-8)Neu5Ac(a2-3)Gal(b1-4)Glc
Method in brief: as §1

B1: Siglec-H (Mus musculus), Q4QQK7 (protein)
chain: MLLSRLLPLLWVLKWASGNCFILPREVIGTYPSLTLELQSVTVQEGLCVLVPCHLIEYPMNRWSDAAFGYWFHEGENTHPDSLVATNKPYQLVQKEMQSRFHFSGDCSLDIRDAQKGDNGSYFFRLEKGGKTWNFCEERISVHVTDLTHSPNISIPQTLELGRPTNVMCSVPWACERGTPPIFSWMSAALISLGPTTTLSSVLTLTPRLQDHGTNLTCQVTFPGAGVTVQKTIQLNVTYNSQNSTAHVSGRVGPGKPRPLADVVQVAMGEAAIKFLLLGICFFFLSKRSHTKRVERPATHMDQAHAVMD
- glycan array binding signal (z-score) [1]: -0.144
- glycan array binding signal (z-score) [2]: -0.393
- glycan array binding signal (z-score) [3]: -0.35
- glycan array binding signal (z-score) (Man(b1-4)GlcNAc): -0.116
- glycan array binding signal (z-score) (Neu5Ac(a2-3)Gal): -0.288
- glycan array binding signal (z-score) [4]: -0.361
- glycan array binding signal (z-score) [5]: 0.075
- glycan array binding signal (z-score) [6]: -0.371
- glycan array binding signal (z-score) [7]: -0.255
- glycan array binding signal (z-score) [8]: -0.312
- glycan array binding signal (z-score) [9]: -0.1
- glycan array binding signal (z-score) [10]: 1.46
- glycan array binding signal (z-score) [11]: -0.383
- glycan array binding signal (z-score) [12]: -0.382
- glycan array binding signal (z-score) [13]: -0.317
- glycan array binding signal (z-score) [14]: 2.4
- glycan array binding signal (z-score) (Neu5Ac(a2-3)Gal(b1-4)Glc): -0.279
- glycan array binding signal (z-score) [15]: -0.323
- glycan array binding signal (z-score) [16]: -0.271
- glycan array binding signal (z-score) [17]: -0.033
- glycan array binding signal (z-score) [18]: -0.359
- glycan array binding signal (z-score) [19]: 0.637
- glycan array binding signal (z-score) [20]: -0.092
- glycan array binding signal (z-score) [21]: -0.197
- glycan array binding signal (z-score) [22]: -0.235
- glycan array binding signal (z-score) [23]: -0.264
- glycan array binding signal (z-score) [24]: -0.272
- glycan array binding signal (z-score) [25]: -0.306
- glycan array binding signal (z-score) [26]: -0.332
- glycan array binding signal (z-score) [27]: -0.309
- glycan array binding signal (z-score) (Neu5Ac(a2-3)GalNAc): 1.76
- glycan array binding signal (z-score) [28]: -0.076
- glycan array binding signal (z-score) [29]: -0.261
- glycan array binding signal (z-score) [30]: -0.192
- glycan array binding signal (z-score) [31]: -0.259
- glycan array binding signal (z-score) (Neu5Ac(a2-6)Gal): -0.372
- glycan array binding signal (z-score) (Neu5Ac(a2-6)Gal(b1-4)Glc): -0.319
- glycan array binding signal (z-score) [32]: -0.199
- glycan array binding signal (z-score) [33]: 1.02
- glycan array binding signal (z-score) [34]: -0.217
- glycan array binding signal (z-score) [35]: -0.291
- glycan array binding signal (z-score) (Neu5Ac(a2-6)GalNAc): -0.358
- glycan array binding signal (z-score) [36]: -0.382
- glycan array binding signal (z-score) (Neu5Ac(a2-8)Neu5Ac): -0.241
- glycan array binding signal (z-score) [37]: -0.342
